The text below walks through data of PMC9911399, “Two distinct binding modes provide the RNA-binding protein RbFox with extraordinary sequence specificity”.

Numbering of substitutions follows the chain as printed; changes in the protein carry UniProt numbers. Some of the results follow.

First the molecules themselves.
T1: RBFOX1 RRM RbFoxmut (Fox-RRM*) (Homo sapiens, UniProt Q9NWB1 109-208, R118D;E147R;N151S;E152T)
T1 sequence: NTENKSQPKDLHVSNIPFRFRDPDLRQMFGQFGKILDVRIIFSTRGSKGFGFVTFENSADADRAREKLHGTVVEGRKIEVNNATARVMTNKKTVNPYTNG

B1: GAUACAG (DNA:RNA)
RNA: GGGAGACCGGAAUUCAGAUUGUCCGAUACAGUUAAAUCCCGUCGUAGCCACCA
DNA 1: CAATCTGAATTCCGGTCTCCC
DNA 2: TGGTGGCTACGACGGGATT
B2: CGUUAUG (DNA:RNA)
RNA: B1 RNA with G25C, A26G, A28U, C29A, A30U
DNA 1: CAATCTGAATTCCGGTCTCCC
DNA 2: TGGTGGCTACGACGGGATT
B3: AGGAUAC (DNA:RNA)
RNA: B1 RNA with G25A, A26G, U27G, C29U, G31C
DNA 1: CAATCTGAATTCCGGTCTCCC
DNA 2: TGGTGGCTACGACGGGATT
B4: CCGUCCG (DNA:RNA)
RNA: B1 RNA with G25C, A26C, U27G, A28U, A30C
DNA 1: CAATCTGAATTCCGGTCTCCC
DNA 2: TGGTGGCTACGACGGGATT
B5: CGUCUAU (DNA:RNA)
RNA: B1 RNA with G25C, A26G, A28C, C29U, G31U
DNA 1: CAATCTGAATTCCGGTCTCCC
DNA 2: TGGTGGCTACGACGGGATT
B6: GUCCAAA (DNA:RNA)
RNA: B1 RNA with A26U, U27C, A28C, C29A, G31A
DNA 1: CAATCTGAATTCCGGTCTCCC
DNA 2: TGGTGGCTACGACGGGATT
B7: GGUAUGA (DNA:RNA)
RNA: B1 RNA with A26G, C29U, A30G, G31A
DNA 1: CAATCTGAATTCCGGTCTCCC
DNA 2: TGGTGGCTACGACGGGATT
B8: GGUUCGC (DNA:RNA)
RNA: B1 RNA with A26G, A28U, A30G, G31C
DNA 1: CAATCTGAATTCCGGTCTCCC
DNA 2: TGGTGGCTACGACGGGATT
B9: UUUUGGC (DNA:RNA)
RNA: B1 RNA with G25U, A26U, A28U, C29G, A30G, G31C
DNA 1: CAATCTGAATTCCGGTCTCCC
DNA 2: TGGTGGCTACGACGGGATT
B10: CCAAUGC (DNA:RNA)
RNA: B1 RNA with G25C, A26C, U27A, C29U, A30G, G31C
DNA 1: CAATCTGAATTCCGGTCTCCC
DNA 2: TGGTGGCTACGACGGGATT
B11: GAUCACG (DNA:RNA)
RNA: B1 RNA with A28C, C29A, A30C
DNA 1: CAATCTGAATTCCGGTCTCCC
DNA 2: TGGTGGCTACGACGGGATT
B12: UGUUGCU (DNA:RNA)
RNA: B1 RNA with G25U, A26G, A28U, C29G, A30C, G31U
DNA 1: CAATCTGAATTCCGGTCTCCC
DNA 2: TGGTGGCTACGACGGGATT
B13: UUCGCAA (DNA:RNA)
RNA: B1 RNA with G25U, A26U, U27C, A28G, G31A
DNA 1: CAATCTGAATTCCGGTCTCCC
DNA 2: TGGTGGCTACGACGGGATT
B14: GCGUGUA (DNA:RNA)
RNA: B1 RNA with A26C, U27G, A28U, C29G, A30U, G31A
DNA 1: CAATCTGAATTCCGGTCTCCC
DNA 2: TGGTGGCTACGACGGGATT
B15: ACUGUGG (DNA:RNA)
RNA: B1 RNA with G25A, A26C, A28G, C29U, A30G
DNA 1: CAATCTGAATTCCGGTCTCCC
DNA 2: TGGTGGCTACGACGGGATT
B16: CUUGAAU (DNA:RNA)
RNA: B1 RNA with G25C, A26U, A28G, C29A, G31U
DNA 1: CAATCTGAATTCCGGTCTCCC
DNA 2: TGGTGGCTACGACGGGATT
B17: UCCCGUA (DNA:RNA)
RNA: GGGAGACCGGAAUUCAGAUUGUCCUCCCGUAUUAAAUCCCGUCGUAGCCACCA
DNA 1: CAATCTGAATTCCGGTCTCCC
DNA 2: TGGTGGCTACGACGGGATT
B18: GUCCGCA (DNA:RNA)
RNA: B17 RNA with U25G, C26U, U30C
DNA 1: CAATCTGAATTCCGGTCTCCC
DNA 2: TGGTGGCTACGACGGGATT
B19: AUAAAUC (DNA:RNA)
RNA: B1 RNA with G25A, A26U, U27A, C29A, A30U, G31C
DNA 1: CAATCTGAATTCCGGTCTCCC
DNA 2: TGGTGGCTACGACGGGATT
B20: AUUGAAA (DNA:RNA)
RNA: B1 RNA with G25A, A26U, A28G, C29A, G31A
DNA 1: CAATCTGAATTCCGGTCTCCC
DNA 2: TGGTGGCTACGACGGGATT

The target of this assay is T1, RBFOX1 RRM RbFoxmut (Fox-RRM*). Put plainly: EMSA; HiTS-Eq, 1 nM pool, 10 min; buffer printed only for the single-RNA assays: 10 mM Tris pH 7.5, 150 mM NaCl, 3.4 mM EDTA, 0.001% NP-40, 30 C. Conditions: tags: His6 N-terminal (pET28a); label: 5' 32P. Summed up: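 Purified RbFox RRM (wild type or mutant) was equilibrated for 10 min in 50 µL with 1 nM of a 5′-radiolabelled pool of RNA with 7 randomized nucleotides, its flanks annealed to DNA oligonucleotides, across increasing protein concentrations. Free RNA was separated by 8% native PAGE, excised, reverse-transcribed, PCR-barcoded and sequenced on an Illumina HiSeq 2500. Relative association constants came from read-count changes of each variant against the control reaction, normalised to the cognate motif.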
Regarding B1, the binding signal is 0.0827 KA relative to UGCAUGU.

In the case of B2, the binding signal was 0.269 KA relative to UGCAUGU.

In the case of B3, the binding signal was 0.109 KA relative to UGCAUGU.

As for B4, the binding signal is 0.0957 KA relative to UGCAUGU.

For the molecule B5, the binding signal is 0.107 KA relative to UGCAUGU.

With B6, the binding signal was 0.0688 KA relative to UGCAUGU.

As to B7, the binding signal is 0.468 KA relative to UGCAUGU.

On to B8, for which the binding signal was 0.145 KA relative to UGCAUGU.

With B9, the binding signal is 0.11 KA relative to UGCAUGU.

On to B10, for which the binding signal is 0.0919 KA relative to UGCAUGU.

B11: the binding signal was 0.0819 KA relative to UGCAUGU.

B12: the binding signal was 0.138 KA relative to UGCAUGU.

As to B13, the binding signal is 0.068 KA relative to UGCAUGU.

Take B14: the binding signal is 0.266 KA relative to UGCAUGU.

Take B15: the binding signal is 0.109 KA relative to UGCAUGU.

Regarding B16, the binding signal is 0.104 KA relative to UGCAUGU.

On to B17, for which the binding signal is 0.12 KA relative to UGCAUGU.

Regarding B18, the binding signal was 0.107 KA relative to UGCAUGU.

As to B19, the binding signal was 0.0815 KA relative to UGCAUGU.

For B20, the binding signal is 0.0994 KA relative to UGCAUGU.
